PubChem BioAssay AID1963576 (National Center for Advancing Translational Sciences (NCATS), 2024)
Screen size: about 46,000 compounds; about 60 (0.1%) were called active. Inconclusive results (about 3%) are left out. Calls follow the shape of the dose curve; as a rule, active = well fitted inhibition curve with a large enough effect; inconclusive = small, poorly fitted or top-dose-only effect; inactive = no such curve, though single readings can be large or run the other way. The list shows a part of the results.

Assay: Primary qHTS assay for Inhibitors of ovarian cancer metastasis using an organotypic tumor microenvironment (TME) model. Also: nearly all actives have a fitted effect of over 65% in size.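 As to activity change, negative = inhibition: plate controls were DMSO wells for no effect and tomatine positive control wells for full effect.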
Conditions: SKOV3ip1-GFP adhesion/invasion on 3D omental model, fluorescence; series mostly up to 45.8 µM; activity change, negative = inhibition: at the top concentration
How it was run: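 A 3D layer of primary human omental fibroblasts, mesothelial cells, fibronectin and collagen I, grown 48 hr, received SKOV3ip1-GFP cells in serum-free medium plus compounds at 0.36-46 umol/L. After 2 hr RT and 16 hr 37 C, fixed adherent GFP cells were counted; normalized to DMSO and tomatine.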

Activity change, negative = inhibition, inactive:
Cc1cccc(N2CCN(C(=O)c3nn(C)c4c3CS(=O)(=O)c3ccccc3-4)CC2)c1C -17.6%
Cc1cc(NS(=O)(=O)c2ccc(N)cc2)no1 -0.991%
COc1ccc(CN2CCc3c(c(=O)n4ncc(C(=O)N5CCN(c6ccccc6F)CC5)c4n3C)C2)cc1 4.59%
COC(=O)c1ccc2c(=O)n3nc(Nc4ccc(F)cc4F)sc3nc2c1 1.59%
COc1cc(CNc2ccc3[nH]c(=O)[nH]c3c2)ccc1OCc1ccc(F)cc1Cl 1.72%
COc1ccccc1N1CCN(C(=O)c2cc(-c3ccc(C)c(F)c3)on2)CC1 -11.6%
COCCCNC(=O)CN1C(=O)c2cccnc2Sc2ccccc21 18.5%
O=C(Nc1cccc(C(F)(F)F)c1)Nc1nnc(N2CCCCCC2)s1 -0.64%
CCN(CC)CCNC(=O)C(=O)Nc1c2c(nn1-c1ccc(F)cc1)CSC2 0.98%
COc1ccc(-c2cc(C(=O)Nc3sc4c(c3C(N)=O)CCCC4)no2)cc1 33.1%
COc1cccc2cc(C(=O)Nc3ccc(CC(=O)O)cc3)c(=O)oc12 -1.89%
Cc1cccc(NC(=O)CSc2nc3ccc(NC(=O)COc4ccccc4C)cc3s2)c1 -13.5%
CC1CN(C(=O)NCc2ccccc2)c2cc(Cl)ccc2O1 (stereo not given) 3.54%
CCCNC(=O)CCC(=O)N1Cc2cccc(OC)c2Oc2ncccc21 3.81%
O=C(NCc1ccc(Cl)cc1)C1CCN(c2nn3cc(-c4ccc(F)cc4)nc3s2)CC1 -4.01%
CCn1c2c(c(=O)n3ncc(C(=O)Nc4cc(Cl)ccc4OC)c13)CN(Cc1ccc(OC)cc1)CC2 -7.43%
CCCCc1cc(=O)oc2cc(C)c3c(C(C)(C)C)coc3c12 -1.65%
COc1cccc(CNC(=O)c2cc(-c3ccc(Cl)s3)nc3ccccc23)c1 1.38%
COc1ccc(NC(=O)c2nc(S(C)(=O)=O)ncc2N(Cc2ccc(C)cc2)Cc2ccco2)cc1Cl 1.1%
COc1ccc(Cl)cc1NC(=O)c1cc(-c2ccc3c(c2)OCO3)on1 -5.13%
Cc1cccc(CSc2nc3c(sc4ccccc43)c(=O)n2CCC(=O)NC(C)C)c1 -0.621%
Cc1ncc(CO)c2c1Oc1nc(-c3ccc(Cl)cc3)nc(SCC(=O)N3CCCCC3)c1C2 2.23%
CCOc1ccc(C(=O)c2cn(CC(=O)Nc3ccc4c(c3)OCO4)c3ccc(OC)cc3c2=O)cc1 0.308%
Cc1ccc(CNC(=O)CCc2c(C)nn(-c3ccc(N4CCOCC4)nn3)c2C)cc1 4.92%
O=C(NCC(c1cccnc1)N1CCN(c2ccccc2F)CC1)C(=O)Nc1ccc(F)cc1F (stereo not given) -0.549%
O=C(CCn1c(=O)c2cccn2c2cccnc21)NCc1ccccc1Cl 1.68%
O=C(CSc1nc2ncccc2[nH]1)Nc1cc(F)ccc1F -4.99%
Cc1ccc(Cl)cc1NC(=O)CSc1nc2ccccc2c2nc(-c3ccccc3)nn12 1.97%
CCn1c(=O)n(-c2ccc3c(c2)OCO3)c2nc(-c3ccc(C(C)C)cc3)nc(C(N)=O)c21 2.5%
O=C(Nc1cccc(Cl)c1)C1CCCN(c2nn3cc(-c4ccc(F)cc4)nc3s2)C1 (stereo not given) 9.87%
COc1ccc(OC)c(NC(=O)Cn2c(=O)c3cccn3c3ccccc32)c1 13.7%
CCOc1ccc2c(c1)c(=O)c(C(=O)c1ccc(CC)cc1)cn2CC(=O)Nc1ccccc1OC 0.308%
CC1CCCCN1CCCNC(=O)c1cc(Sc2cccc(Cl)c2)nc2ccccc12 (stereo not given) -14.1%
O=C(COc1ccc2ccccc2c1)NC1CC(=O)N(c2ccc(F)cc2)C1 (stereo not given) -5.51%
CC1(C)N=C(SCc2ccc(F)cc2)c2ccccc2N1 1.52%
O=C(Cn1cc(C(=O)C(F)(F)F)c2ccccc21)N1CCCCCC1 -26.8%
Cc1c(CNC2CCCCC2)c(C(=O)O)c(C)n1Cc1ccccc1F 6.37%
Cc1ccccc1OCc1nc2c3cnn(-c4cccc(F)c4)c3ncn2n1 -6.07%
CCCCNC(=O)c1c(-c2ccccc2)c(-c2ccccc2)nn(C)c1=O 1.06%
Cc1ccc2c(c1)N(C(=O)N1CCC(C(=O)NCc3ccccc3C)CC1)CC(C)O2 (stereo not given) -0.293%
Cc1oc2ncn(CC(C)C)c(=O)c2c1C(=O)N(CCN(C)C)Cc1ccccc1 3.51%
COc1cccc(C2C(C(=O)Nc3ccc(Cl)cc3)=C(C)Nc3nc4ccccc4n32)c1OC (stereo not given) -20.9%
CC(=O)N1CCCc2cc(S(=O)(=O)N3CCN(c4ccccc4F)CC3)ccc21 -8.18%
CCNC(=O)c1c(NC(=O)Cc2coc3ccc(CC)cc23)sc2c1CCCC2 7.72%
O=C(CSc1nc(=O)[nH]c2c1CCCC2)NCc1ccccc1Cl -3.72%
COc1ccc(C)cc1NC(=O)c1cc(S(=O)(=O)N2CCOCC2)cn1C -30.2%
CC1=C(C(=O)Nc2cccnc2)C(c2cccc(F)c2)n2nc(SCc3ccccc3F)nc2N1 (stereo not given) -0.306%
CCCCNC(=O)CN1C(=O)c2cccnc2Sc2ccccc21 -1.15%
CCOC(=O)c1c(C)n(-c2ccccc2)c2ccc(OC(=O)COc3ccccc3)cc12 16.5%
COc1ccc(N2CCN(C(=O)C3CCCN(C(=O)c4cc5sccc5n4C)C3)CC2)cc1 (stereo not given) 1.81%
CCCc1nnc(NC(=O)c2cc(=O)c3ccccc3o2)s1 4.95%
CCOc1ccccc1NC(=O)CCCc1nc(-c2ccccc2Cl)no1 6.39%
COc1ccc(N2CCN(c3ccc(-c4nc(-c5ccccc5)no4)cc3[N+](=O)[O-])CC2)cc1 3.06%
CCn1c2ccccc2c2cc(CN3CCN(Cc4cc(OC)c(O)c(OC)c4)CC3)ccc21 -28.3%
Cc1ccc(C)c(NC(=O)Cn2nc(C)c3nn(-c4ccc(Cl)cc4)c(C)c3c2=O)c1 8.39%
Cc1ccc(NC(=O)c2sc3ncn(Cc4cccc(F)c4)c(=O)c3c2C)c(Br)c1 1.94%
O=C(Nc1cccc(Cl)c1Cl)c1ccc2c(c1)N(Cc1cccc(Cl)c1)C(=O)c1ccccc1S2=O (stereo not given) 2.86%
COc1cc2[nH]c(=O)n(Cc3ccc(C(=O)N4CCN(c5ccc(Cl)cc5)CC4)cc3)c(=O)c2cc1OC -1.54%
Cc1ccccc1Nc1c(-c2cccc(Cl)c2)nc2ncccn12 -2.38%
CCN(CC)S(=O)(=O)c1ccc2c(c1)N(CC(=O)N1CCN(c3ccc(OC)cc3)CC1)C(=O)CO2 6.41%
COc1ccc(S(=O)(=O)NCCSc2nnnn2-c2ccccc2)cc1OC 9.89%
Cc1ccc(Cl)cc1N1CCN(C(=O)CN2C(=O)COc3ccc(S(=O)(=O)N4CCCCCC4)cc32)CC1 2.77%
CCN(Cc1ccccc1)C(=O)c1cc(-c2ccccc2)n[nH]1 -9.76%
Cc1[nH]c(C=C2C(=O)Nc3ccc(S(=O)(=O)Cc4c(Cl)cccc4Cl)cc32)c(C)c1C(=O)N1CCC[C@H]1CN1CCCC1 5.34%
COc1cc(/C=C(\C#N)c2nc3ccccc3[nH]2)ccc1OCc1ccccc1F -9.75%
CC(C)CN1CCc2nc(Nc3ccc(F)cc3F)ncc2C1 -0.207%
O=C(Cc1cccs1)Nc1c(C(=O)Nc2ccc(F)cc2)oc2ccccc12 -11.2%
CC(=O)N1CCc2c(sc3c2c(=O)n(Cc2ccccc2)c(=O)n3Cc2ccccc2F)C1 -9.88%
COc1cc(N2CCN(C)CC2)ccc1Nc1nc(N)c(C(=O)c2c(Cl)cccc2Cl)s1 7.95%
CC(C)(C)OC(=O)N1CCc2nc(N3CCN(c4ncccn4)CC3)ncc2C1 3.23%
CCS(=O)(=O)N1CCc2cc(C(=O)N3CCN(c4ccccc4OC)CC3)ccc21 -19.5%
CCC(Sc1nc(-c2ccc(F)cc2)nc2c1Cc1c(CO)cnc(C)c1O2)C(=O)Nc1ccc(F)cc1 (stereo not given) -4.08%

outcome, inactive:
CC(=O)c1cccc(NC(=O)CN2C(=O)CCc3cc(S(=O)(=O)N4CCCCC4)ccc32)c1
CCCCN1CC(c2nc3ccccc3n2CCCCOc2cc(C)cc(C)c2)CC1=O (stereo not given)
CCOc1ccc(S(=O)(=O)N2Cc3ccccc3CC2C(=O)Nc2ccc(NC(C)=O)cc2)cc1 (stereo not given)
COc1ccc(C)cc1NC(=O)N1CCN(S(=O)(=O)c2ccc3c(ccn3C)c2)CC1
COc1cccc(N2CCN(C(=O)C3CCCN(S(=O)(=O)c4cccc5nsnc45)C3)CC2)c1 (stereo not given)
Cc1ccc(S(=O)(=O)c2cn(CC(=O)Nc3cccc(Cl)c3)c3ccccc3c2=O)cc1
CCOc1ccc(C(=O)Nc2cc(-c3nc4cc(OC)ccc4o3)ccc2C)cc1[N+](=O)[O-]
CCOC(=O)C1CCN(C(=O)c2nn(-c3ccc(OC)c(Cl)c3)c(=O)c3c2c2ccccc2n3C)CC1
Cc1ccccc1CN1c2ccccc2-c2nc(SCC(=O)c3ccccc3)ncc2S1(=O)=O
CCOc1ccccc1NC1(c2ccccc2)C(=O)c2ccccc2C1=O
CCNC(=O)c1ccc2c(c1)nc1n2CCCCC1
CCCCNC(=O)c1ccc2c(c1)N(CC)C(=O)c1ccccc1S2
CC(=O)N1c2ccc(S(=O)(=O)NCc3ccccc3Cl)cc2CC1C (stereo not given)
CCc1cccc(NC(=O)CSc2nncn3c2cc2sccc23)c1
CCOc1ccc(CCNC(=O)c2cc3c(=O)n(CC)c4ccccc4c3s2)cc1OCC
COc1ccc(CNC(=O)CCS(=O)(=O)c2cc(Br)cc3c2N(C(C)=O)C(C)C3)cc1 (stereo not given)
Cn1cnc(S(=O)(=O)N2CCCC(C(=O)NCc3ccc(Cl)cc3)C2)c1 (stereo not given)
Cc1oc2ccc(O)c(CN3CCOCC3)c2c1C(=O)Nc1cccc(C(F)(F)F)c1
CC(C)CCNC(=O)c1ccc2c(c1)NC(=O)C(C(C)C)N2 (stereo not given)
Cc1c(C)n(Cc2ccccc2)c2ccc(C(=O)N3CCN(c4ccc(F)cc4)CC3)cc12
COc1ccc(-n2c(SCC(N)=O)nc3c(oc4ccccc43)c2=O)cc1
Cc1ccc(-c2onc(C)c2C)cc1S(=O)(=O)N1CCOc2ccc(Cl)cc21
COc1c(Cl)cc(C(=O)N(Cc2ccccc2F)C2CCS(=O)(=O)C2)cc1Cl (stereo not given)
